Source: PubChem BioAssay AID686979 (National Center for Advancing Translational Sciences (NCATS), 2013)
In all, about 420,000 compounds went through this assay and about 50,000 (12%) were called active. Inconclusive results, whose numbers are uncertain, are shown with a selection of clear calls. Calls follow the shape of the dose curve; as a rule, active = well fitted inhibition curve with a large enough effect; inconclusive = small, poorly fitted or top-dose-only effect; inactive = flat fitted curve, though single readings scatter. No potency is given beside an inconclusive call; the fits are too rough.
% is scaled to controls: 0 for no effect and ±100 for the full control effect; potency is read from the fitted curve at half-maximal effect; tags tell the direction and shape of the fitted curve.

Test: qHTS for Inhibitors of human tyrosyl-DNA phosphodiesterase 1 (TDP1): qHTS in cells in presence of CPT; also: nearly all actives have a fitted effect of over 55% in size
Settings: chicken DT40 Tdp1-/-;hTDP1 cells + 20 nM CPT, ATP luminescence, 48 h; activity change, negative = growth inhibition: at 46.2 µM (top of the series)
Method in brief: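 Cell growth measured by CellTiter-Glo luminescence after a minimum 48 h, 37 C compound exposure with 20 nM CPT in Tdp1-knockout DT40 cells stably expressing hTDP1, seeded 400/well; qHTS titration format.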
In the case of `N#CCN=C(c1ccccc1)c1ccccc1`, the Potency is reported as “inactive”. In the case of `COc1ccc(CCNC(=O)Nc2nc(CN)cs2)cc1OC`, the Potency is reported as inconclusive [inhibitor, partial curve]. In the case of `CCOCCCNc1ccc(N2C(=O)C3CCCCC3C2=O)cc1[N+](=O)[O-]` (stereo not drawn), the Potency is reported as inconclusive [inhibitor, partial curve]. With `N#Cc1ccccc1NC(=O)C(=O)NCC(c1ccc2c(c1)OCO2)N1CCN(c2ccccc2)CC1` (stereo not drawn) the Potency was inconclusive [inhibitor, single point]. With `S=C(NCc1ccco1)N/N=C/c1ccc(Cl)cc1` the Potency was inconclusive [inhibitor, single point]. In the case of `Cc1cc(Cl)ccc1OC(C)C(=O)N1CCCN(C(=O)C(C)Oc2ccc(Cl)cc2C)CC1` (stereo not drawn), the Potency is reported as active: 20.6 µM. For `O=C1C2CC(O)CN2C(=S)N1Cc1ccccc1` (stereo not drawn), the Potency was “inactive”. For `CC1=C(C(=O)Nc2ccccc2C)C(c2ccc(C)o2)n2c(s/c(=C/c3ccccc3)c2=O)=N1` (stereo not drawn), the Potency was inconclusive [inhibitor, single point]. With `Cc1cccc(N(CC(=O)NCc2ccc3c(c2)OCO3)C(=O)CCC(=O)Nc2ccccn2)c1C` the Potency was inconclusive [inhibitor, single point]. In the case of `Cc1nc2cccnc2n1-c1cccc(C(=O)NCCc2ccc(Cl)cc2)c1`, the Potency is reported as inconclusive [inhibitor, single point]. For `CCOc1ccc(CNc2ccc(N3CCCC3)cc2)cc1`, the Potency was active: 9.2 µM. With `O=C(Cc1cccs1)NCCn1ccc2ccccc21` the Potency was “inactive”. For `O=S1(=O)CC/C(=N\O)c2ccccc21`, the Potency was “inactive”. With `O=C(CN1CCC(C(=O)c2ccc(Cl)cc2)CC1)NC1CCCC1` the Potency was inconclusive [inhibitor, single point]. With `CC(C)CC(=O)O/N=C1\C(=O)N(c2ccccc2)c2ccccc21` the Potency was active: 20.6 µM. For `O=C(Nc1ccc2c(c1)OCO2)c1cc(C2CCCCN2C(=O)c2ccccc2)on1` (stereo not drawn), the Potency was active: 13 µM. For `COc1ccc2[nH]c(C(=O)N3CCC(CO)(Cc4cccc(C(F)(F)F)c4)CC3)c(C)c2c1`, the Potency was inconclusive [inhibitor, single point]. In the case of `O=C(Nc1ccc2nc(SCC(=O)N3CCCc4ccccc43)sc2c1)c1ccc(F)cc1`, the Potency is reported as active: 5.8 µM. With `COc1ccc(OC)c(NC(=O)c2cc3ccccc3o2)c1` the Potency was “inactive”. With `CCCCN(CC)C(=O)Cn1c(=O)n(-c2ccc(OCC)cc2)c(=O)c2c3c(sc21)CCCC3` the Potency was inconclusive [inhibitor, single point]. For `CC(C)=CCCC(C)CN1CCC(N2CCC(C(=O)N3CCOCC3)CC2)CC1` (stereo not drawn), the Potency was inconclusive [inhibitor, single point]. With `CCC(=O)N1CCCc2cc(S(=O)(=O)Nc3ccc(C)c(C)c3)ccc21` the Potency was active: 23.1 µM. With `COc1ccccc1C(=O)N1CCN(C(=O)Cc2ccccc2)CC1` the Potency was “inactive”. With `COCCOc1cc(N(CC(=O)N(C)C)S(=O)(=O)c2ccccc2)c(Cl)cc1Cl` the Potency was inconclusive [inhibitor, single point]. In the case of `NC(=S)N/N=C\c1c(OCc2ccccc2Cl)ccc2ccccc12`, the Potency is reported as active: 6.51 µM. In the case of `Cc1ccc(NC(=S)N=Nc2c(O)[nH]c3ccccc23)cc1`, the Potency is reported as active: 6.51 µM. In the case of `COc1ccc(NC(=O)C(CCS(C)(=O)=O)NC(C)=O)cc1` (stereo not drawn), the Potency is reported as “inactive”. In the case of `N/C(Cc1ccccc1)=N\OC(=O)c1cccc2ccccc12`, the Potency is reported as inconclusive [inhibitor, single point]. In the case of `O=C(NCC1CC1(Cl)Cl)Nc1ccc(Cl)c(Cl)c1` (stereo not drawn), the Potency is reported as inconclusive [inhibitor, single point]. In the case of `Cn1cnc(S(=O)(=O)N2CCC(C(=O)N3CCN(c4cccc(C(F)(F)F)c4)CC3)CC2)c1`, the Potency is reported as inconclusive [inhibitor, single point]. In the case of `CCOC(=O)c1c(C)[nH]c(C)c1S(=O)(=O)NCC(=O)N(C)c1ccc(C)c(C)c1`, the Potency is reported as inconclusive [inhibitor, single point]. In the case of `COc1cccc(NC(=O)CN(C)C(=O)c2ccc(NC(=O)CC3SC(N4CCCCC4)=NC3=O)cc2)c1` (stereo not drawn), the Potency is reported as “inactive”. For `CC(C)(C)c1ccc(NC(=O)CSc2nnc3scc(-c4ccccc4)n23)cc1`, the Potency was inconclusive [inhibitor, single point]. For `CCOC(=O)C1CCN(S(=O)(=O)Cc2ccccc2)CC1`, the Potency was inconclusive [inhibitor, single point]. In the case of `COc1cc(/C=N/Nc2nc(N3CCCC3)nc(N3CCCC3)n2)ccc1OCc1ccccc1F`, the Potency is reported as active: 16.4 µM. In the case of `O=C(CSc1ncnc2c1oc1ccccc12)Nc1cccc(Cl)c1`, the Potency is reported as inconclusive [inhibitor, single point]. In the case of `COc1cccc(NC(=O)Cc2nnc(SCC(=O)NC3=NCCS3)n2C)c1`, the Potency is reported as inconclusive [inhibitor, single point]. In the case of `Cc1nnc2c(N3CCN(CCO)CC3)nc3ccccc3n12`, the Potency is reported as “inactive”. In the case of `CCN(CC)c1nn2c(=O)c(C(=O)NCc3cccc(C)c3)cnc2s1`, the Potency is reported as inconclusive [inhibitor, single point]. With `CC(=O)c1c(C)oc2ccc(N(C(C)=O)S(=O)(=O)c3cccc([N+](=O)[O-])c3)cc12` the Potency was active: 20.6 µM. With `COc1ccc(Cn2c(SCc3ccc(C(=O)NCCc4ccccc4)cc3)nc3cccnc32)cc1` the Potency was inconclusive [inhibitor, full curve, poor fit]. For `CC(C)(C)c1ccc(S(=O)(=O)N2CCN(CCC#N)CC2)cc1`, the Potency was “inactive”. With `COC(=O)c1ccccc1S(=O)(=O)N1CCC(C(=O)Nc2ccccc2N2CCOCC2)CC1` the Potency was inconclusive [inhibitor, single point]. For `COC(=O)[C@@]12C[C@@H](CC(=O)NCC3CCCCC3)C(=O)N(Cc3ccco3)C1=CCC(C)(C)C2`, the Potency was inconclusive [inhibitor, single point]. For `C(=C1c2ccccc2-c2ccccc21)c1ccccn1`, the Potency was inconclusive [inhibitor, single point]. In the case of `COCc1c(C(=O)N/N=C(\C)c2ccncc2)nnn1-c1nonc1N`, the Potency is reported as “inactive”. For `Cc1ccccc1-n1c(-c2ccoc2C)n[nH]c1=S`, the Potency was inconclusive [inhibitor, single point]. For `CCOC(=O)c1c(C)nc2sc3c(=O)n(-c4ccc(C(C)=O)cc4)cnc3c2c1-c1ccc(OC)cc1`, the Potency was “inactive”. For `COc1ccc(S(=O)(=O)NCC2CCCN(C(=O)c3ccco3)C2)cc1` (stereo not drawn), the Potency was “inactive”. With `Cc1nc(C(F)(F)F)ccc1C(=O)N1CCC1(C)C(=O)NCc1cccs1` (stereo not drawn) the Potency was “inactive”. In the case of `O=C(O)CSCc1nc2ccccc2[nH]1`, the Potency is reported as “inactive”. In the case of `CCc1noc(C)c1C(=O)N1CCN(S(=O)(=O)c2cccs2)CC1`, the Potency is reported as “inactive”. With `CCCc1cc(C(=O)Nc2cccc(Cl)c2)no1` the Potency was “inactive”. With `COCCN(C(=S)Nc1c(C)cc(C)cc1C)C(C)c1cccs1` (stereo not drawn) the Potency was inconclusive [inhibitor, single point]. For `CCOC(=O)[C@]12CCC=C1N(Cc1ccccc1)C(=O)[C@H](CC(=O)NCc1cccc3ccccc13)C2`, the Potency was inconclusive [inhibitor, single point]. In the case of `O=C(N/N=C\c1ccc(Cl)cc1)C1=NOC2COC3(CCN(c4ccc([N+](=O)[O-])cc4)CC3)OCC12` (stereo not drawn), the Potency is reported as active: 10.3 µM. With `CCOC(=O)C1C(=O)NC(C(=O)OCC)(C(=O)OCC)C1CC` (stereo not drawn) the Potency was “inactive”. In the case of `Cc1nn(C(=O)c2cccc(F)c2)c(C)c1S(=O)(=O)N1CCCCCC1`, the Potency is reported as “inactive”. In the case of `CNC(=O)c1cccc(NC(=O)C(C)c2ccc3cc(OC)ccc3c2)c1` (stereo not drawn), the Potency is reported as inconclusive [inhibitor, single point]. For `COCCNC(=O)C1C(=O)Nc2ccccc2C(=O)N1Cc1ccccc1` (stereo not drawn), the Potency was “inactive”. With `Cc1ccc(NC(=O)CSc2ncnc3c2sc2ccccc23)cc1C` the Potency was “inactive”. With `Clc1ccc(SCCOCCN2CCCCCC2)cc1` the Potency was inconclusive [inhibitor, single point]. In the case of `CCCN1CCN(CCCNC(=O)Cn2c(-c3cccs3)cc3ccccc32)CC1`, the Potency is reported as inconclusive [inhibitor, single point]. In the case of `COc1cc2nc(SCC(=O)c3ccc(Br)cc3)n3nc(C)nc3c2cc1OC`, the Potency is reported as inconclusive [inhibitor, single point]. In the case of `COc1ccc(O)c(/C=N/NC(=O)c2cc(=O)[nH]c3ccccc23)c1`, the Potency is reported as inconclusive [inhibitor, single point]. In the case of `CC(C)NC(=O)c1ccc(CONC(=O)OCc2ccccc2)cc1`, the Potency is reported as “inactive”. In the case of `O=C(O)C1=C[C@H](c2ccc(F)cc2)C[C@H](OCCCCO)O1`, the Potency is reported as “inactive”. With `Cn1nc(-c2ccccc2F)c2cc(C(=O)N3CCN(c4ccc(F)cc4)CC3)sc21` the Potency was inconclusive [inhibitor, single point]. In the case of `Cc1noc(C)c1COc1ccc(C(=O)NCC2CCCO2)cc1` (stereo not drawn), the Potency is reported as “inactive”. In the case of `O=C(Nc1cccc2cccnc12)c1ccccc1Br`, the Potency is reported as “inactive”. For `C#CCOCCOCCOCCNc1nc(N2CCN(C(=O)CCCCCCCCCCNC(=O)[C@H](CCCCN)n3cc(CCO)nn3)CC2)nc(N2CCN(C(=O)CCCCCCCCCCNC(=O)[C@H](CCCCN)n3cc(CCO)nn3)CC2)n1`, the Potency was inconclusive [inhibitor, partial curve]. In the case of `CCCOc1ccc2oc(=O)c3c(c2c1)CCCN3C(=O)CN1CCCC(C(=O)OCC)C1` (stereo not drawn), the Potency is reported as inconclusive [inhibitor, single point]. For `Cc1cccc(N2CCN(S(=O)(=O)c3ccc(F)c(C(=O)Nc4ccc(C(C)C)cc4)c3)CC2)c1C`, the activity change, negative = growth inhibition was inconclusive: -31.9% [inhibitor].
